Molecular target: Hsc70‐T204A (human, UniProt P11142, T204A)
Assay: NMR titration

Sequence of UniProt P11142 (P11142 whole entry T204A): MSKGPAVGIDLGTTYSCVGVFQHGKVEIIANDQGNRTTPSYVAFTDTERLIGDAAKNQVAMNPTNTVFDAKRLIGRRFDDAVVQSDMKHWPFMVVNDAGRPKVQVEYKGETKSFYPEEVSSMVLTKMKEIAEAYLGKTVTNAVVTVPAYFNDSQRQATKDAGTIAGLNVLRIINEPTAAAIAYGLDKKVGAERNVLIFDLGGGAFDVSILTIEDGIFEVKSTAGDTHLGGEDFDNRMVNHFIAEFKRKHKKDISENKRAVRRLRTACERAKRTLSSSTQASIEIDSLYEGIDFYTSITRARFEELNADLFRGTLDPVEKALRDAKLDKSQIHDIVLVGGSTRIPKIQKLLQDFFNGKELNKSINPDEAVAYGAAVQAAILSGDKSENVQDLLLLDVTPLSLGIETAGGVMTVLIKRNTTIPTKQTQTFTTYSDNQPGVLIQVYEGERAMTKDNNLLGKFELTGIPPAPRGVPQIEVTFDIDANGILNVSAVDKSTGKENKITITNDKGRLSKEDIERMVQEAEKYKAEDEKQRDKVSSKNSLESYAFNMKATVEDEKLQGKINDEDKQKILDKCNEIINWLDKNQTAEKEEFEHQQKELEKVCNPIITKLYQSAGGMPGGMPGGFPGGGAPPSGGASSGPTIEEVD

B1: (JD‐G/FR)‐S51E (domain or fragment, human, UniProt O60884 1-111, looked up)
chain: MANVADTKLYDILGVPPGASENELKKAYRKLAKEYHPDKNPNAGDKFKEIEFAYEVLSNPEKRELYDRYGEQGLREGSGGGGGMDDIFSHIFGGGLFGFMGNQSRSRNGRR
- binding result: binds
